Experimental data taken from PubChem BioAssay AID624417 (National Center for Advancing Translational Sciences (NCATS), 2012).
In all, about 410,000 compounds went through this assay and about 6,400 (1.6%) were called active. This list was built around the results that the source calls inconclusive (neither active nor inactive); the mix of calls is not that of the screen. The call rests on the fitted dose curve; in most records, active means well fitted inhibition curve with a large enough effect; inconclusive means small, poorly fitted or top-dose-only effect; inactive means no such curve, though single readings can be large or run the other way. No potency is given beside an inconclusive call; the fits are too rough.

What follows are compounds tested against Glucagon-like peptide 1 receptor (Homo sapiens) (UniProt P43220) (assay: qHTS of GLP-1 Receptor Inverse Agonists (Inhibition Mode)). Details: HEK293 GLP-1R CRE-luciferase, luminescence, 24 h, GLP-1R form is constitutively active; activity change, negative = inhibition: at 38.3 µM (top of the series) unless noted.
Chain of UniProt P43220 (P43220 whole entry, looked up): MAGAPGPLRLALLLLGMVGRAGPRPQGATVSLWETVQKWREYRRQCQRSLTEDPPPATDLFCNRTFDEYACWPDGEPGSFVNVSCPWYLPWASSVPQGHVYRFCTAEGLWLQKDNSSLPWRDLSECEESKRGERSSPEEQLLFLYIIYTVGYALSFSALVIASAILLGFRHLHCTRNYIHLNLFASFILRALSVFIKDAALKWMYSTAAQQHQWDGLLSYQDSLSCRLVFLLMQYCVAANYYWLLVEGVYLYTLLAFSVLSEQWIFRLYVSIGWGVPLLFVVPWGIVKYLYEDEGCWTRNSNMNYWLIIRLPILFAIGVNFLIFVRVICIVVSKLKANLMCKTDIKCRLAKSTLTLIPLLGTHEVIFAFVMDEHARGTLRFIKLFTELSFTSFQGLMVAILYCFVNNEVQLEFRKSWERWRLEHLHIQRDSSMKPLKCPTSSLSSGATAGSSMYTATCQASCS
How it was run: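 qHTS in 1536-well format: reporter HEK293 cells expressing constitutive GLP-1R activity in DMEM + 10% Nu serum, 24 hr with compounds at 37 deg C, luminescence read after 12 min with detection reagent.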
Further: nearly all actives have a fitted effect of over 55% in size.
On the % scale 0 is the no-effect control and ±100 the full control effect; potency means the concentration at half of the fitted maximal effect; tags describe the fitted curve by direction and shape.

SMILES | activity change, negative = inhibition | Potency
CCCCN(C=O)c1c(CC)nc2c(OCC(=O)N3CCOCC3)cccn12 | inactive: 3.54% | –
O=[N+]([O-])c1ccccc1NC(=S)N/N=C/c1ccc(O)c(O)c1 | inactive: 40.3% | –
CCOc1ccccc1N1CCN(C(=O)c2csc(C)c2CC)CC1 | – | inconclusive [inhibitor, partial curve, poor fit]
Cc1ccc(CSc2nnc(-c3ccc4c(c3)OCO4)o2)cc1 | inactive: 10.9% | –
O=C(CN1c2ccccc2Sc2ccccc21)NNC(=O)Nc1cccc(Cl)c1 | – | active: 3.55 µM
CCCCn1nnnc1C(c1cc2ccccc2o1)N1CCN(c2ccncc2)CC1 (stereo unspecified) | – | inconclusive [inhibitor, partial curve, poor fit]
NC(=O)COc1ccccc1/C=C1/SC(=O)N(CC(=O)N2CCc3ccccc3C2)C1=O | – | inconclusive [inhibitor, single point]
O=C(Nc1ccc(F)cc1)N1CCCN(c2nccc(C(F)(F)F)n2)CC1 | – | inconclusive [inhibitor, single point]
Nc1cc(Cl)nc(N/N=C/c2ccccc2[N+](=O)[O-])n1 | inactive: 23.9% | –
S=C(Nc1ccccc1)N(CCN1CCOCC1)Cc1cccc(Cl)c1 | – | inconclusive [inhibitor, single point]
Cc1ccc(NC(=O)c2cc([N+](=O)[O-])ccc2NCc2cccnc2)cc1Cl | – | inconclusive [inhibitor, single point]
CCOc1ccc(-n2nc(CO)c(C(=O)NCCCc3ccccc3)n2)cc1 | – | inconclusive [inhibitor, single point]
Cc1cc(C)c(C)c(OC(=O)c2sc(Cl)nc2C)c1 | – | inconclusive [inhibitor, single point]
O=C(Nc1ccc(N2CCN(C(=O)c3cccs3)CC2)cc1)c1ccccc1F | – | inconclusive [inhibitor, single point]
Cc1ccccc1OCC(O)CN1CCN(CC(O)COc2ccccc2C)CC1 (stereo unspecified) | – | active: 8.91 µM
OC(CN(Cc1ccccc1)Cc1ccccc1)c1ccccc1 (stereo unspecified) | – | inconclusive [inhibitor, partial curve, poor fit]
Cc1ccc(CSCCNC(=O)CN(c2ccc(F)cc2)S(C)(=O)=O)cc1 | – | inconclusive [inhibitor, partial curve, poor fit]
CC(=O)c1ccc2c(c1)C1C=CCC1C(c1cc3c(cc1Br)OCO3)N2 (stereo unspecified) | – | inconclusive [inhibitor, full curve, poor fit]
Cc1ccc(CN(C(=O)c2ccccc2F)c2ccccn2)o1 | inactive: 4.05% | –
C/C(=N\NC(=O)c1ccccc1NC(=O)c1ccc(Cl)cc1)c1ccncc1 | – | inconclusive [inhibitor, full curve, poor fit]
C=CCN(CC=C)S(=O)(=O)c1ccc2nc(NC(=O)C(C)C)sc2c1 | – | inconclusive [inhibitor, partial curve, poor fit]

SMILES | activity change, negative = inhibition | Potency
O=C(NCCOc1ccccc1F)C1CC(=O)N(Cc2ccccc2)C1 (stereo unspecified) | inactive: 1.58% | –
COC(=O)C1=CN(c2ccc(Cl)cc2)C=C(C(=O)OC)C1c1ccc([N+](=O)[O-])cc1 | – | inconclusive [inhibitor, partial curve, poor fit]
NS(=O)(=O)c1cccc(NC(=O)CSc2nc3ccccc3n2-c2ccccc2)c1 | inactive: 33.1% [at 7.66 µM] | –
CCn1c(CNc2ccc(Cl)cc2)nnc1SCc1ccc(C)cc1 | – | inconclusive [inhibitor, single point]
NNC(=O)c1cncn1-c1ccc(F)cc1 | – | inconclusive [inhibitor, single point]
CCc1nc2ccc(C(=O)NC3CCN(Cc4ccccc4)CC3)cn2c1N(C)Cc1cccs1 | – | inconclusive [inhibitor, partial curve, poor fit]
COc1ccc(NC(=O)C2(C)Cc3c(-c4cccc(C(F)(F)F)c4)ccnc3O2)cn1 (stereo unspecified) | – | inconclusive [inhibitor, partial curve, poor fit]
Cc1ccccc1Nc1nc(-c2ccccc2)c(C(=O)Nc2cccnc2)s1 | – | inconclusive [inhibitor, partial curve, poor fit]
COc1ccc(Cl)cc1NC(=O)CN(C)C(=O)c1cc(-c2ccncc2)nc2ccccc12 | – | inconclusive [inhibitor, partial curve, poor fit]
COc1cccc(CC(=O)Nc2ccc3c(c2)CCC3)c1 | – | inconclusive [inhibitor, single point]
CSc1cccc(NC(=O)CN2CCN(Cc3ccccc3C)S2(=O)=O)c1 | – | inconclusive [inhibitor, single point]
CC(c1ccco1)N(C(=O)C12CC3CC(CC(C)(C3)C1)C2)c1ccccn1 (stereo unspecified) | – | inconclusive [inhibitor, partial curve, poor fit]
CCCC(=O)Nc1nc2nc(-c3ccccc3)cc(-c3ccccc3)n2n1 | inactive: 31.9% | –
CC(C)N1C(=O)C(O)(c2c[nH]c3ccccc23)c2ccccc21 (stereo unspecified) | – | inconclusive [inhibitor, partial curve, poor fit]
Cn1c2ccccc2c(=O)c2c(=O)n(-c3ccc(F)cc3)c(C3CCCCC3)nc21 | – | inconclusive [inhibitor, partial curve, poor fit]
COc1cccc(NC(=O)Nc2cc(C)ccc2OC)c1 | – | inconclusive [inhibitor, single point]
O=C1c2ccccc2C(=O)N1CCC1=CCCCC1 | – | inconclusive [inhibitor, single point]
CN(C)CCNC(=O)c1[nH]nc2c1CCc1ccccc1-2 | inconclusive: -55.3% [inhibitor] | –
CCN=C1S/C(=C\c2cc(OCC)c(O)cc2Br)C(=O)N1CC | – | inconclusive [inhibitor, single point]
CC(C)C[C@H](NC(=O)c1[nH]cnc1C(=O)N[C@@H](Cc1ccccc1)C(=O)OC(C)(C)C)C(=O)OCc1ccccc1 | – | inconclusive [inhibitor, single point]
